# Test results: PubChem BioAssay AID1347417 (National Center for Advancing Translational Sciences (NCATS), 2020)
# Among all 120,000 compounds or so, about 5,300 (4.4%) were called active. Inconclusive means that the source gave no clear call. Such entries were picked first, then a sample of the others. Calls follow the shape of the dose curve; as a rule, active = well fitted inhibition curve with a large enough effect; inconclusive = small, poorly fitted or top-dose-only effect; inactive = no such curve, though single readings can be large or run the other way. Potencies of inconclusive entries are doubtful fits and often do not repeat.
# Assay: qHTS Primary assay for Inhibitors of Plasmodium falciparum Dd2 growth in vitro; also: nearly all actives have a fitted effect of over 65% in size;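 as to activity, negative = inhibition: plate controls were DMSO vehicle for no effect and reference drug for full effect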
# Conditions: P. falciparum Dd2 growth, SYBR Green, 72 h; activity, negative = inhibition: at 28.9 µM (top of the series) unless noted; series mostly up to 28.9 µM
# Summary of the method: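 Infected erythrocytes (Dd2, 0.3% parasitemia, 2.5% hematocrit final) are added to compound in RPMI-1640/Albumax II medium, grown 72 h at 37C in low oxygen, then lysed with saponin/Triton-X containing SYBR Green and read by fluorescence.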
# Potency is read from the fitted curve at half-maximal effect; tags tell the direction and shape of the fitted curve.
SMILES,Potency,"activity, negative = inhibition"
CCCCC(Sc1nc2cc3c(cc2c(=O)n1CCCC(=O)NCc1ccc(OC)cc1)OCO3)C(=O)OCC (configuration not stated),active: 7.94 µM,–
Cc1ccc(N2CCN(c3ncncc3-c3nc(-c4ccccc4)no3)CC2)cc1,"inconclusive: 5.62 µM [inhibitor, partial curve, poor fit]",–
Cc1ccc(NC(=O)c2c(C)oc3ccc(O)c(CN4CCCCCC4)c23)c(C)c1,active: 1.12 µM,–
CCOc1ccc(CC(=O)N2CCC(Cc3nc(-c4ccc(OC)cc4)no3)CC2)cc1OCC,"inconclusive: 3.98 µM [inhibitor, single point]",–
CCOc1ccccc1NC(=O)Cn1c(=O)n(Cc2ccccc2)c(=O)c2c(C)c(C)sc21,"inconclusive: 12.6 µM [inhibitor, single point]",–
O=C(Nc1nc2n(n1)C(c1ccccc1)C=C(c1ccccc1)N2)c1ccc(Cl)c([N+](=O)[O-])c1 (configuration not stated),active: 8.91 µM,–
CCOC(=O)c1ccc(N2C(=O)c3n[nH]c(-c4cccs4)c3C2c2ccc(C(C)(C)C)cc2)cc1 (configuration not stated),active: 7.08 µM,–
CCn1c2c(c(=O)n1Cc1ccccc1)CCN(C(=O)c1cn[nH]c1)C2,inactive,–
CN(C)CCCC(=O)N1CCC2(CC1)CN(C(=O)Cc1ccc(O)cc1)CCO2,inactive,–
Cn1cccc1CN1CCCC2(CN[S+](=O)([O-])c3ccccc3N2)C1 (configuration not stated),"inconclusive: 12.6 µM [inhibitor, partial curve, poor fit]",–
COc1cccc(C(=O)N2c3cc(C)ccc3C(C)(c3ccccc3)CC2(C)C)c1 (configuration not stated),"inconclusive: 10 µM [inhibitor, single point]",–
C#CCNC(=O)[C@H]1O[C@H](CCN2CCN(c3ccccc3)CC2)CC[C@@H]1O,"inconclusive: 14.1 µM [inhibitor, single point]",–
N#C/C(=C\c1ccc(Cl)cc1)c1nc(-c2cc3ccccc3oc2=O)cs1,"inconclusive: 0.0501 µM [inhibitor, full curve, poor fit]",–
Cc1cc(CNC(=O)[C@@H]2CCC[C@@H](NCc3cccnc3)CN(C)C(=O)C2)no1,inactive,–
CCN(Cc1ccncc1)C(=O)c1c(OCC2CC2)cc(=O)n2c1CCCCC2,"inconclusive: 2.82 µM [inhibitor, single point]",–
O=C(O)CCc1cc2n(n1)CCN(C(=O)c1ccccc1-n1cccc1)C2,inactive,–
O=C(c1ccc(F)c(Cl)c1)N1CCC2(CC1)CN(c1ccccc1)C2=O,inactive,–
CC1(c2ccccc2)N(Cc2ccccc2F)C(=O)OC12CCN(C(=O)c1cccc(C#N)c1)CC2 (configuration not stated),"inconclusive: 4.47 µM [inhibitor, partial curve, poor fit]",–
CSc1ccc2cc(CN(C)CCO)c(-c3ccc(Cl)cc3)nc2c1,"inconclusive: 20 µM [inhibitor, single point]",–
CC(c1cccc(CN2CCC(CO)(CN3CCCC3)CC2)c1)N(C)C (configuration not stated),"inconclusive: 17.8 µM [inhibitor, single point]",–
Cc1noc(C2CC3(CCN(C(=O)CCc4ccccc4)CC3)CN2C)n1 (configuration not stated),"inconclusive: 8.91 µM [inhibitor, partial curve, poor fit]",–

SMILES,Potency,"activity, negative = inhibition"
CCCc1noc(-c2cccn3c(CNC(=O)c4cccc(Cl)c4)nnc23)n1,"inconclusive: 5.62 µM [inhibitor, partial curve, poor fit]",–
CCc1noc(-c2cn(C3CCN(C(=O)c4cc(F)ccc4F)C3)nn2)n1 (configuration not stated),inactive,–
CCN(Cc1ccccn1)C(=O)c1coc(COc2ccc3c(c2)OCO3)n1,inactive,–
CCC(=O)N1CCN(c2nc3c(s2)CC(C(=O)NCC(C)C)CC3)CC1 (configuration not stated),"inconclusive: 3.55 µM [inhibitor, single point]",–
Cn1nccc1C(=O)N1CCC(c2noc(-c3ccncc3)n2)C1 (configuration not stated),–,inactive: 8.52% [at 5.79 µM]
CCS(=O)(=O)N1CCCC(c2nc(CCOc3ccc(F)cc3)no2)C1 (configuration not stated),"inconclusive: 17.8 µM [inhibitor, single point]",–
O=C(N[C@H]1CO[C@H]2[C@@H]1OC[C@@H]2Nc1nccc(-c2cccs2)n1)c1ccccc1,inactive,–
CCN1CCCC12Cc1ccccc1CN(C(=O)c1c(C)noc1C)C2 (configuration not stated),"inconclusive: 8.91 µM [inhibitor, partial curve, poor fit]",–
Cn1nccc1-c1cn(C)c(=O)n2cc(COc3ccc(Cl)cc3)nc12,"inconclusive: 5.62 µM [inhibitor, single point]",–
O=C(NCC1Cn2cccc2CN1Cc1ccccc1)C1CC1 (configuration not stated),"inconclusive: 10 µM [inhibitor, partial curve, poor fit]",–
O=C(Nc1ccc([C@@H](O)[C@H]2COCC(=O)N2CC2CC2)cc1)C1CCCC1,"inconclusive: 31.6 µM [inhibitor, single point]",–
Cc1ccc(C(C)C)c(OCC(=O)Nc2cccc(NC(=O)c3ccco3)c2)c1,"inconclusive: 17.8 µM [inhibitor, single point]",–
CC1=Nc2cc(C(=O)NCCc3ccc(Cl)cc3)ccc2Sc2ccc(C)cc21,"inconclusive: 17.8 µM [inhibitor, single point]",–
CCN1C(=O)CCN(C(=O)c2cccc(C#N)c2)CC12CCOCC2,inactive,–
O=C(CSc1nc(-c2ccccc2)no1)N1CCN(c2ccccc2F)CC1,"inconclusive: 6.31 µM [inhibitor, partial curve]",–
O=C(Cc1cccc(F)c1)N1CCC2(CC1)CN(c1ncccn1)CC2CO (configuration not stated),"inconclusive: 5.01 µM [inhibitor, partial curve, poor fit]",–
COc1ccccc1OCCn1c(-c2ccc(Cl)cc2)nc2ccccc2c1=O,inactive,–
Cc1oc2ccc(O)c(CN(C)Cc3ccccc3)c2c1C(=O)Nc1cccc(C(F)(F)F)c1,"inconclusive: 0.501 µM [inhibitor, full curve, poor fit]",–
O=C(C1CCCC1)N1CCC(c2noc(CO)n2)C1 (configuration not stated),"inconclusive: 17.8 µM [inhibitor, single point]",–
COc1ccccc1C(=O)N1CCC2(CC1)C(=O)Nc1ccccc12,–,inconclusive: -56.5% [inhibitor]
CCn1cnnc1CC1CCN(C(=O)C2CC2)CC1,"inconclusive: 0.562 µM [inhibitor, full curve, poor fit]",–
